PubChem BioAssay AID1346428 (National Center for Advancing Translational Sciences (NCATS), 2018)
“And” between values parts separate entries of the source, which are not always exact repeats. Equal values may be shown once. Hit rate of the full screen: of about 48,000 compounds, about 1,200 (2.5%) were called active. Not shown: some 2% with an inconclusive outcome.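 Rule for the calls: active = activation of at least 60% and not above a set upper limit (about 1 call in 100 departs from these limits); inconclusive = activation of 40% to 60%, or above that upper limit; inactive = activation under 40%.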 The list shows a part of the results.
Note: 0% is about no effect.

Each compound was assayed against Probable G-protein coupled receptor 32 (Homo sapiens) (UniProt O75388) (assay: qHTS for Agonists of Human Resolvin D1 Receptor DRV1). Details: CHO-K1 GPR32 beta-arrestin PathHunter luminescence, 90 min; at 76.9 µM; active compounds read high; zero percent set by DMSO-only wells.
Chain of UniProt O75388 (O75388 whole entry, looked up, the tested form may be a part): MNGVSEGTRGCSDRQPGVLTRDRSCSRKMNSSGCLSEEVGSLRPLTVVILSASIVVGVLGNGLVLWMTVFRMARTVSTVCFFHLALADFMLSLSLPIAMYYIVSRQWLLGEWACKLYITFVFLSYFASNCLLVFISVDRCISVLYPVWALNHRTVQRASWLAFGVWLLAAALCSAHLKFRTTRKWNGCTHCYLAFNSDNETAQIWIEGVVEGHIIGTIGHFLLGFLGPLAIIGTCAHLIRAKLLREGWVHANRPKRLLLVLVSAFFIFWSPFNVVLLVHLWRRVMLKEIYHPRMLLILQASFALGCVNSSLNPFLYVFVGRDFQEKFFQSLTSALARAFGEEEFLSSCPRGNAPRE
How it was run: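 Agonism was scored as beta-arrestin recruitment to ProLink-fused GPR32 in stably transfected CHO-K1 cells, giving a chemiluminescent beta-Gal signal; compounds were incubated 90 min at 37 °C.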
`CC(Sc1nnc2ccc3ccccc3n12)C(=O)Nc1ccc(Cl)cc1` (centres undefined) was tested, and the activation was inactive: 11.2%. In the case of `COc1cccc(CCNC(=O)c2c(O)nc3c(C)cccn3c2=O)c1`, the activation was inactive: -5.58%. For `CCCc1cc(=O)[nH]c(Nc2cc(C)ccc2OC)n1`, the activation was inactive: -17.2%. In the case of `CCc1ccc(NC(=O)CC2C(=O)N(c3cccc(OC)c3)C(=O)N2Cc2ccc(F)cc2)cc1` (centres undefined), the activation was inactive: -24.9%. With `COc1cc2nc(N3CCN(C(=O)c4ccco4)CC3)nc(N)c2cc1OC` the activation was inactive: 3.05%. In the case of `NCCS(=O)(=O)O`, the activation was inactive: -0.0312% and inactive: 0.534%. `Cc1nc2ccn(Cc3ccccc3)c(=O)c2cc1C(=O)N1CCN(c2ccc(F)cc2)CC1` was tested, and the activation was inactive: 6.98%. With `COc1ccccc1NC(=O)Cn1c(SCC(=O)Nc2ccc(F)cc2)nc2ccccc21` the activation was inactive: -26.8%. In the case of `Cc1cc(NC(=O)n2ncc3c(C)cccc32)ccc1Br`, the activation was inactive: -4.63%. `CCc1ccc(NC(=O)CC2C(=O)N(c3cccc(C)c3)C(=O)N2Cc2ccc(F)cc2)cc1` (centres undefined) was tested, and the activation was inactive: -28.1%. With `CCOC(=O)c1cnc2cc(-c3ccc(OCC)cc3)nn2c1-c1ccccc1` the activation was inactive: -16.6%. `COCCc1nn2c(=O)cc(COC(=O)C(c3ccccc3)c3ccccc3)nc2s1` was tested, and the activation was inactive: -23.9%. For `CCCCS(=O)(=O)N[C@@H](Cc1ccc(OCCCCC2CCNCC2)cc1)C(=O)O`, the activation was inactive: -6.02%. For `COc1ccc(NC(=O)CSc2nccn2Cc2ccc3c(c2)OCO3)cc1`, the activation was inactive: -11.7%. `CCn1cc(C(=O)O)c(=O)c2cnc(N3CCNCC3)nc21` was tested, and the activation was inactive: -8.37%. In the case of `COc1ccc(C)cc1NC(=O)C(=O)NCC(c1cccnc1)N1CCc2ccccc21` (centres undefined), the activation was inactive: -30.7%. With `COc1ccc(C2=Nc3ccccc3NC(c3cccs3)=N2)cc1` the activation was inactive: -22.7%. For `Cc1cc(C)c(NC(=O)CSc2ccc(-c3ccccn3)nn2)c(C)c1`, the activation was inactive: -3.29%. In the case of `CN(C)CCNC(=O)CN1C(=O)COc2ccc(S(=O)(=O)N3CCCC3)cc21`, the activation was inactive: -15.3%. In the case of `CCOc1ccccc1NC(=O)c1c(NC(=O)COc2ccccc2)sc2c1CCCC2`, the activation was active: 105%. `Cc1ccc(-n2c3c(cc(C(=O)Nc4ccccc4C(N)=O)c2=O)C(=O)CC(C)(C)C3)cc1` was tested, and the activation was inactive: 15.8%. `O=C1CC(c2ccccc2)Sc2ccccc2N1Cc1ccc(F)cc1` (centres undefined) was tested, and the activation was inactive: -28.9%. With `Cc1ccc(CNC(=O)CSc2ncc3c(n2)-c2cc(Cl)ccc2N(C)S3(=O)=O)cc1` the activation was inactive: 0.0892%. With `CCCCOc1ccc(CNC(=O)c2cccc(NC(=O)N3CCSc4ncccc43)c2)cc1` the activation was inactive: 3.95%. `Cc1c(C(=O)NCc2ccc(Cl)cc2)oc2ccc3c(c12)C(=O)CC(C)(C)O3` was tested, and the activation was inactive: -28.3%. For `COc1nc(C)nc(Cl)c1NC1=NCCN1`, the activation was inactive: -8.98% and inactive: -0.819%. In the case of `O=C(CCc1nc(CN2CCN(S(=O)(=O)c3ccc(Br)cc3)CC2)no1)N1CCCCC1`, the activation was inactive: -19.1%. For `CCOc1ccccc1C1CC(=O)Nc2c1c(=O)n(C)c1ncnn21` (centres undefined), the activation was inactive: -5.96%. With `CCCCNC(=O)C1CCCN(S(=O)(=O)CCC)C1` (centres undefined) the activation was inactive: -5.91%. For `CCc1nn(CC(=O)NC2CC2)c(=O)c2cc3c(OC)cccc3n12`, the activation was inactive: -0.777%. `COc1ccc(-n2ncc3c(NCCCOC(C)C)ncnc32)cc1` was tested, and the activation was inactive: -3.7%. For `COc1cccc(Cn2cc(C(=O)c3ccccc3)c(=O)c3cc4c(cc32)OCO4)c1`, the activation was inactive: 8.47%. With `OCCCc1ccccc1` the activation was inactive: -5.44%. For `COc1cc(NC(=O)Cn2c(=O)n(CC3CCC(C(=O)NCCc4ccccc4)CC3)c(=O)c3ccccc32)cc(OC)c1` (centres undefined), the activation was inactive: -2.71%. `COc1cc2cc(CNc3ccccc3)c(=O)n(CC(=O)Nc3cccc(Cl)c3C)c2cc1OC` was tested, and the activation was inactive: -16.9%. `CO/N=C(/C(=O)N[C@@H]1C(=O)N2C(C(=O)OCOC(=O)C(C)(C)C)=C(C)CS[C@H]12)c1csc(N)n1` was tested, and the activation was inactive: -8.36%. With `Cc1ccc(NCc2cccn2-c2nnc(N3CCC(C(=O)NCCc4ccc(Cl)cc4)CC3)s2)cc1` the activation was inactive: -34%. With `CCc1ccc(C(=O)c2cn(CC(=O)Nc3ccc4c(c3)OCCO4)c3ccc(F)cc3c2=O)cc1` the activation was inactive: 7.19%. `CCc1nn2c(=O)cc(COC(=O)c3cccc(NC(=O)CCc4ccccc4)c3)nc2s1` was tested, and the activation was inactive: -15.5%. `COc1ccc(-n2c(C)nc3c(cnn3-c3ccc(F)cc3)c2=O)cc1` was tested, and the activation was inactive: 21.2%. With `CCCCN(CC)CCCNC(=O)c1c(C)oc2ncnc(N3CCOCC3)c12` the activation was inactive: -11.7%. In the case of `CCn1cc(/C=C(\NC(=O)c2ccc(OC)cc2)C(=O)NCCCn2ccnc2)c2ccccc21`, the activation was inactive: 8.79%. In the case of `COc1ccccc1CNC(=O)C1CCN(c2nc3ccc(Cl)cc3[nH]2)CC1`, the activation was inactive: -9.09%. For `COc1cc2c(=O)n(CCC(=O)NCC3CCCO3)c(=O)n(CC(=O)Nc3ccccc3C)c2cc1OC` (centres undefined), the activation was inactive: -9.9%. In the case of `CCc1nn(CC(=O)NCCc2ccc(OC)cc2OC)c(=O)c2cc3occc3n12`, the activation was inactive: -31.9%. `CCCCc1ccc(-n2nc3cc(C)c(NC(=O)c4ccc(C#N)cc4F)cc3n2)cc1` was tested, and the activation was inactive: -6.39%. With `CCOc1ccccc1Nc1nc2ccccc2c2nncn12` the activation was inactive: -4.86%. `COc1cccc2c1cc1c(=O)n(CC(=O)N3CCN(c4cccc(C)c4C)CC3)nc(C)n12` was tested, and the activation was inactive: -9.77%. With `CCc1cccc(NS(=O)(=O)c2c(C)[nH]c(=O)[nH]c2=O)c1` the activation was inactive: 11.1%. `CC(=O)c1c(C)oc2ccc(N(C(=O)Oc3ccccc3)S(=O)(=O)c3ccc(Cl)cc3)cc12` was tested, and the activation was inactive: 5.37%. For `Cc1ccc(Cn2nnc3c(=O)[nH]c(C4CCN(C(=O)Cc5ccccc5F)CC4)nc32)cc1`, the activation was inactive: -25.5%. With `Cc1ccc(CNC(=O)C2CCN(S(=O)(=O)N3CCCCC3)CC2)cc1` the activation was inactive: -4.94%. With `COc1ccc(CCNC(=O)CCc2c(C)nc3c4c(C)cc(C)nc4nn3c2C)cc1OC` the activation was inactive: 0.219%. `CCOc1ccc(CNC(=O)c2ccc3oc(=O)n(Cc4ccccc4)c3c2)cc1` was tested, and the activation was inactive: -5.97%. With `COc1ccc2c(c1)cc(CNc1ccc(OC)c(OC)c1)c(=O)n2CC(=O)Nc1ccccc1C` the activation was inactive: -38.6%. In the case of `Fc1ccc(N2CCN(c3nc4ccccc4c4nc(-c5ccccc5)nn34)CC2)cc1`, the activation was inactive: 0.879%. For `CC1CCN(S(=O)(=O)c2ccc3c(c2)CCN3C(=O)Nc2ccccc2Br)CC1`, the activation was inactive: -22.3%. In the case of `COc1ccc(OCC(=O)Nc2ccc(-c3nc4cc(C)cc(C)c4o3)cc2)cc1`, the activation was inactive: -4.1%. `Cc1ccc(S(=O)(=O)Nc2cccc(-c3ccc(N4CCC(C)CC4)nn3)c2)s1` was tested, and the activation was inactive: 2.09%. `Cc1ccc(NC(=O)C2CCCN(S(=O)(=O)c3ccc4[nH]c(=O)ccc4c3)C2)cc1Cl` (centres undefined) was tested, and the activation was inactive: -7.23%. For `COc1ccc(CC(=O)Nc2nc3c(s2)CC(C)CC3)cc1` (centres undefined), the activation was inactive: 47.8%. In the case of `COc1ccc2c(c1)c1c(c(=O)n(CCc3ccccc3)c(=O)n1Cc1cccc(Cl)c1)n2C`, the activation was inactive: 8.64%. With `CC(=O)Nc1cccc(NC(=O)c2cc3c(=O)n4cccc(C)c4nc3n2C)c1` the activation was inactive: 7.77%. In the case of `O=C(NCc1cccc(Cl)c1)c1c2c(nc3ccccc13)C(=O)N(C1CCCCC1)C2`, the activation was inactive: -11.3%. In the case of `CC1CN(C(=O)N2CCC(C(=O)NCCCc3ccccc3)CC2)c2cc(Cl)ccc2O1` (centres undefined), the activation was inactive: 22.1%. In the case of `CCOc1ccccc1Nc1ncnc2c1cnn2-c1ccc(C)cc1`, the activation was inactive: 12%. For `CCCn1cc(S(=O)(=O)c2ccc(C)cc2)c(=O)c2cc(F)c(N3CCCC3)cc21`, the activation was inactive: -1.89%. For `COc1cc(NC(=O)c2ccc(C)c(Cl)c2)ccc1NC(=O)c1cc2ccccc2o1`, the activation was inactive: -8.08%. For `O=C(Nc1ccc(-c2nc3cc(Cl)ccc3o2)cc1)c1cc2ccccc2o1`, the activation was inactive: 15.9%. `COc1ccc(CNC(=O)c2ccc3nc(-c4ccc(F)cc4)c(-c4ccc(F)cc4)nc3c2)cc1` was tested, and the activation was inactive: -8.11%. For `CCC1(C)Cc2c(sc3nc(SC)n(-c4ccc(C)cc4)c(=O)c23)CO1` (centres undefined), the activation was inactive: -8.04%. With `Cc1nnc(NC(=O)c2ccccc2)s1` the activation was inactive: -2.83%. `c1ccc(C(NCCNC(c2ccccc2)c2ccccc2)c2ccccc2)cc1` was tested, and the activation was inactive: -36.3%. In the case of `Cc1ccc(NC(=O)c2ccccc2Br)c(C(=O)c2ccccc2)c1`, the activation was inactive: -13.7%. `Cc1cc(NC(=O)CCNS(=O)(=O)c2cccc3nsnc23)ccc1Br` was tested, and the activation was inactive: 33.4%. With `COc1ccc(Cn2c(SCc3ccc(C(=O)NC(C)c4ccccc4)cc3)nc3cccnc32)cc1` (centres undefined) the activation was inactive: 20.5%. `CC1CCN(c2nc3ccc(C(=O)NCc4ccccc4)cc3s2)CC1` was tested, and the activation was inactive: 7.73%. In the case of `CCc1ccc(S(=O)(=O)c2nnn3c2nc(Nc2ccc(NC(C)=O)cc2)c2sccc23)cc1`, the activation was inactive: -8.35%. In the case of `CCOc1ccc(N(Cc2ccccc2)C(=O)c2nc(S(C)(=O)=O)ncc2Cl)cc1`, the activation was inactive: -2.59%. In the case of `Cc1cccc(N2CCN(C(=O)CS(=O)(=O)Cc3nc(-c4ccccc4C)oc3C)CC2C)c1` (centres undefined), the activation was inactive: 34.1%. With `CCOC(=O)CNC(=O)N1CCN(c2nnc(C)c3c(C)n(-c4ccc(Cl)cc4)nc23)CC1` the activation was inactive: -1.44%. For `COc1cc(NC(=O)CCCOc2cc(=O)n(C)c3ccccc23)cc(OC)c1OC`, the activation was inactive: 2.79%. For `COc1ccc(OC)c(NC(=O)Cn2c(=O)cc(-c3ccccc3)c3c(C)nn(C)c32)c1`, the activation was inactive: -9.49%. `O=S(=O)(NCc1nc2cccnc2n1Cc1ccccc1Cl)c1ccc(F)c(Cl)c1` was tested, and the activation was inactive: -19.6%.
